# The other results are listed elsewhere or left out.
# System: T1, Caupolican (Caup) homeodomain DNA-binding domain
# T1 sequence: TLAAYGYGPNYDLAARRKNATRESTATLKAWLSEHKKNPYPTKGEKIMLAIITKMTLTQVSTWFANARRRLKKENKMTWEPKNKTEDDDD
# Assay: PBM E-score (8-mer, recovered from the published 9-mer minima) (E-score (dimensionless, -0.5 to 0.5)); Drosophila protein; higher = stronger relative binding preference, active = 0.31 or more
# Description: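 Protein binding microarray (PBM): in vitro transcribed/translated Caupolican (Caup) homeodomain DNA-binding domain (residues 214-303) applied at 100 nM to a universal 8-mer PBM array (Agilent AMADID 015681). The 8-mer enrichment score (E-score, range -0.5 to 0.5) was computed, and each 9-mer score is the minimum E-score of its two constituent 8-mers. The E-score is the same for a 9-mer and its reverse complement; 0.31 is the stated binding threshold.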
row,Sequence,PBM E-score
1,AATTGAGC,inactive: -0.0237
2,CGGGTTAG,inactive: -0.0766
3,CCCACGAC,inactive: -0.16
4,TCGGGGAA,inactive: -0.0407
5,ACCCTGTA,≥ 0.166
6,CGTTGGCC,inactive: -0.176
7,AAGGCTAG,inactive: 0.01
8,CTCTATTA,inactive: 0.0344
9,CAGAGGGG,inactive: -0.312
10,ATAATAGG,inactive: 0.0633
11,ATCATGTC,active: ≥ 0.42
12,ACTGTACT,inactive: 0.0884
13,AGGGTTCA,inactive: -0.0368
14,GTTACACA,active: 0.339
15,CGTTACAG,inactive: 0.128
16,CCTGGTAC,inactive: 0.161
17,AGTGGTCC,inactive: -0.0558
18,GTAATGTA,inactive: 0.273
19,CCAACAAG,inactive: 0.196
20,ATCGTTAA,inactive: 0.149
21,CTATTTTA,inactive: 0.0799
22,AACGTACC,inactive: 0.0531
23,AAAGAACG,inactive: -0.0322
24,CTTTGTAA,inactive: 0.259
25,GAGCCGGA,inactive: -0.276

row,Sequence,PBM E-score
1,AGCAAGGG,inactive: -0.0948
2,ACGGACAG,inactive: 0.0915
3,ACCATTCC,inactive: 0.0013
4,CAATGAAA,inactive: 0.0427
5,AACTCAGC,inactive: -0.115
6,CGTAGGGA,inactive: -0.065
7,AACATTGC,inactive: 0.193
8,CCTCCCCA,inactive: -0.169
9,AGTAACCG,inactive: -0.0194
10,CGTTGGAA,inactive: 0.00621
11,AGGATGGG,inactive: -0.132
12,AGTTTTCA,inactive: 0.0509
13,AAGCTTCT,inactive: -0.0362
14,AAGCAAAC,inactive: 0.102
15,CACAAGAA,inactive: 0.0855
16,GGGATACC,inactive: -0.141
17,ATAGTGTA,≥ 0.211
18,TGTCTGAA,inactive: 0.159
19,ACGAGCTC,inactive: -0.0848
20,GATACCAC,inactive: 0.00761
21,AGATATAG,inactive: 0.165
22,AGGTCTAG,inactive: -0.121
23,GGTCGACA,inactive: 0.0565
24,CATAGCAG,inactive: 0.0448
25,ACGCGAGT,≥ -0.00136

row,Sequence,PBM E-score
1,ACACTGCC,inactive: 0.0956
2,ATTGGGAC,inactive: 0.0623
3,CTCACGGA,inactive: -0.0859
4,ATCAACCG,inactive: -0.0335
5,CCCCAGGC,inactive: -0.251
6,ATTGTATC,inactive: 0.215
7,ACAGAGGG,inactive: -0.13
8,CTTGTGCC,inactive: -0.0395
9,ATAAATGC,inactive: 0.0532
10,ACCTTTCT,inactive: -0.011
11,CCTCTACC,inactive: -0.0946
12,ATAATTAT,≥ 0.255
13,AGGACCCT,inactive: -0.0986
14,AGACACAA,inactive: 0.248
15,CGTAAAAA,inactive: 0.0273
16,ATGCTTTG,inactive: 0.173
17,GTGAATAA,inactive: 0.143
18,ACTTTCCA,≥ 0.0062
19,CATTTAGA,inactive: 0.0432
20,CTCAGAGA,inactive: -0.143
21,TGGTTAAA,inactive: 0.112
22,TATGCATA,inactive: 0.114
23,ATTCGGCC,inactive: -0.0735
24,GTCATCCA,inactive: 0.073
25,GGGATTAC,inactive: 0.0873

row,Sequence,PBM E-score
1,GAAGTGCC,inactive: -0.133
2,AAGGAACA,inactive: 0.211
3,AATGGCCG,inactive: -0.165
4,ATATCGTG,inactive: 0.106
5,CTCTCGTC,inactive: -0.0767
6,CGCACATC,inactive: -0.0196
7,AACCGCTG,inactive: -0.0919
8,AATACCAG,inactive: 0.171
9,GCGTGGGA,inactive: -0.135
10,CCAAACAC,inactive: 0.152
11,AAAGCGAG,inactive: -0.102
12,AAGACCTG,inactive: -0.0291
13,CACCCCCA,inactive: -0.112
14,AAAGCACG,inactive: 0.021
15,CGAAAGGA,inactive: 0.0204
16,GCATTCTA,inactive: 0.0737
17,AGTAAGAA,inactive: 0.06
18,AAGAGAAA,inactive: -0.0885
19,GAAATTGA,inactive: 0.016
20,GCTCAACC,inactive: -0.147
21,AGTTATCC,inactive: 0.076
22,TGCGGGAA,inactive: -0.119
23,CTAGCTGA,inactive: -0.0069
24,ACGTGTCC,inactive: 0.17
25,CACGATGA,inactive: 0.0802

row,Sequence,PBM E-score
1,AGCCCGTG,inactive: -0.198
2,AGTATGGA,inactive: 0.0729
3,CAGCCGTA,inactive: -0.0465
4,ATGGCGAG,inactive: -0.11
5,ACGTACGA,inactive: 0.0503
6,CAGTAGCA,inactive: 0.0416
7,GATTGAGC,inactive: -0.105
8,ACCCTCCT,inactive: -0.2
9,AATCAGGC,inactive: -0.0419
10,GTTAAAGA,inactive: 0.0986
11,ACCAGACG,inactive: -0.0302
12,ATACCAGA,inactive: 0.146
13,GGTGCAAA,inactive: -0.08
14,GGGCCGGA,inactive: -0.303
15,GCTTTCAC,inactive: -0.0248
16,ACTTCCAC,inactive: 0.0199
17,ATGGTGTG,inactive: 0.112
18,AACGGGGG,inactive: -0.236
19,ACGAGGCC,inactive: -0.171
20,CCGAAGCG,inactive: -0.222
21,AAGGGAAA,inactive: -0.00432
22,GCCGAGTA,inactive: -0.143
23,CCTGTATC,inactive: 0.125
24,ATCCAACA,inactive: 0.192
25,ATCTAAGC,inactive: -0.0923

row,Sequence,PBM E-score
1,AGATCAAC,inactive: 0.0938
2,AGGTACCA,≥ 0.0649
3,CATACTAG,inactive: 0.237
4,ATGTTGCG,inactive: 0.225
5,ACAACTCT,inactive: 0.147
6,ACAACTGA,≥ 0.224
7,GCCCTCCA,inactive: -0.222
8,CCATTACG,inactive: -0.0233
9,ATCTACCC,inactive: -0.072
10,CACCCCCG,inactive: -0.222
11,AGGTTTTG,inactive: -0.0365
12,CCCACACG,inactive: -0.0758
13,ACCGGTGA,inactive: -0.0922
14,ATTGTGTG,inactive: 0.142
15,ACCTCCGA,inactive: -0.0504
16,ACTGTGCG,inactive: -0.0021
17,GGGGCGAA,inactive: -0.197
18,AAGGGACA,inactive: 0.124
19,TACGTATA,inactive: 0.171
20,GGCTTACA,inactive: 0.131
21,GGATGGCA,inactive: -0.00944
22,AGAGTATC,≥ 0.108
23,TGTCCTAA,inactive: 0.192
24,GAAGCTAC,inactive: -0.00674
25,AAATACCA,inactive: 0.101

row,Sequence,PBM E-score
1,AACACAAC,active: ≥ 0.339
2,AAAGCAAT,inactive: 0.122
3,GAATCTGC,inactive: -0.0402
4,TCGCGGAA,inactive: -0.17
5,CGAATTGC,inactive: -0.0371
6,AGGTACCG,inactive: -0.0903
7,GGACTATA,inactive: -0.00439
8,CCGACCGA,inactive: -0.201
9,CTACCCCC,inactive: -0.278
10,GAGCCGCA,inactive: -0.151
11,ATTAGCAC,inactive: -0.00274
12,GGACTGCC,inactive: -0.173
13,ACAGCGCA,inactive: 0.0114
14,ATACGGAT,≥ 0.0883
15,ATCCGGCG,inactive: -0.0736
16,CCAAGCGC,inactive: -0.119
17,AAAGAAGC,inactive: -0.0635
18,CCTCCTTC,inactive: -0.216
19,AGTTTACA,inactive: 0.289
20,AGCTACAG,inactive: 0.0132
21,AAATCCAT,≥ 0.133
22,ATGTGAAT,inactive: 0.166
23,TAAAAGGA,inactive: 0.00611
24,CTTGCGTC,inactive: -0.0726
25,GGTAATCA,inactive: 0.188

row,Sequence,PBM E-score
1,CCGACTCC,inactive: -0.132
2,AACATTTC,≥ 0.297
3,ACAATTGG,inactive: 0.0026
4,GAGCTTGC,inactive: -0.188
5,AAGTAGCC,inactive: -0.0533
6,GACGTGGA,inactive: -0.0891
7,GCGAATTA,inactive: 0.0826
8,AGAGAGAC,inactive: -0.0888
9,CGGACTAG,inactive: -0.108
10,GCCATACC,inactive: -0.148
11,CCCTTTTA,inactive: -0.0355
12,GGCGAGGA,inactive: -0.165
13,AGGATAGG,inactive: -0.0574
14,GAGTTATA,inactive: 0.0755
15,TCGTCAGA,inactive: -0.0168
16,ACATGCGA,inactive: 0.249
17,GCGGCAAC,inactive: -0.102
18,GCTATCCA,inactive: -0.0138
19,ACCTCCAC,inactive: -0.219
20,GAGGACAC,inactive: 0.0986
21,ACTGATCT,inactive: 0.0818
22,GCGAGAGA,inactive: -0.0945
23,CGTTAGAG,inactive: -0.0194
24,ATGTGGTA,inactive: 0.161
25,CAGCACTC,inactive: -0.0601

row,Sequence,PBM E-score
1,ATCGGGTC,inactive: -0.0871
2,CCGGGAAC,inactive: -0.0764
3,ATTCTTAA,inactive: 0.0707
4,CCCTTGCC,inactive: -0.205
5,CGTCTTTA,inactive: -0.0375
6,CATCGCCG,inactive: -0.121
7,ACCCCTTC,inactive: -0.104
8,CCACCGGC,inactive: -0.281
9,GATTTTGC,inactive: 0.019
10,GCGACACC,inactive: 0.026
11,TATCACGA,inactive: 0.113
12,ATATAAGG,inactive: 0.0261
13,CCATCAGG,inactive: -0.159
14,ACAAACCT,inactive: 0.0926
15,AATTTCAA,inactive: 0.104
16,CTCGTAAC,inactive: 0.0881
17,GTAAGAAC,inactive: 0.228
18,CCGCTAGG,inactive: -0.199
19,CACCACAA,inactive: 0.081
20,GTATGCTA,inactive: 0.0712
21,ACTGGGCA,inactive: -0.122
22,ACGTCGCA,inactive: -0.127
23,GTAATATA,inactive: 0.225
24,AACCTTCT,inactive: -0.0799
25,CGGGCACG,inactive: -0.188
